From the supplement of paper PMC5499739
Whole data set: some 16,000 sequences, median “Z-score” near -0.37, cut for the highest 2% near 3.1. The list shows a part of the results.

Tested on: RBM10 RRM1-ZnF-RRM2 (GST-tagged construct)
Assay: RNAcompete 7-mer binding Z-score; higher = stronger binding preference
Summary of the method: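 A designed pool of 241 399 RNAs, each up to 41 nt and transcribed from microarray-derived DNA templates, was used at 1.5 nmol with 20 pmol of GST-tagged RBM10 constructs. The mixture, in 1 ml Hepes pH 7.8 buffer with KCl, NaCl, glycerol, DTT, BSA and glutathione Sepharose beads, was held 30 min at 4°C and then washed four times for 2 min at 4°C. Bound RNA was read out by microarray hybridisation, and enrichment of each heptamer motif was scored as a one-sided Z-score over the probes carrying it.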

Sequence | RNAcompete 7-mer binding Z-score
UCCUUAU | -0.85
GACUGUG | -0.198
UGCAAAA | -0.198
UGAAUCA | -0.0925
CCCCUUA | -0.715
AGUAAGU | 0.188
ACCGUGG | 0.694
UCCCCGU | -0.577
AGAAUGG | 3.51
UAAAGCA | -0.0197
AAACUUU | -0.752
UCAAGGG | 1.24
UGAGUCA | -0.0306
AUGGAUU | 1.32
CCUUCUA | -0.879
GCUGGUG | 0.767
UACAUUG | -0.38
UACUUAA | -0.606
AUAAAAA | -0.384
GUUCGUC | -0.0415
AAUGACU | -0.395
UUGCAGA | -0.0306
UAUGUAC | -0.238
AAACCGC | -0.628
CCCCCGG | -0.231

Sequence | RNAcompete 7-mer binding Z-score
CGCGAAU | -0.57
UUUUGCA | -0.632
GUUGCUC | -0.661
GCUGAAG | 0.457
CAGCCUA | -0.814
CCCUUCG | -0.792
GUGCGGG | 2.74
UCGAGGU | 1.02
UUAACCC | -0.825
GCGAUAC | -0.129
AGAUUUG | 0.312
UCAAUUU | -0.948
CCUGAAC | -0.806
UCAACUG | -0.511
UCCGCAG | -0.508
UGCGGGG | 2.87
UGAAAGA | 0.355
GUUCGGA | 0.115
CUUGAAG | -0.457
AUUUACG | -0.551
CUCUUAU | -0.908
CCAUAGG | 0.0641
CCCAUGG | 0.0932
UAGCCCC | -0.544
UAGCAUA | -0.5

Sequence | RNAcompete 7-mer binding Z-score
AACUAGG | 0.479
AGGCGUA | 0.716
CGUGACA | -0.246
UUGCCUU | -0.956
AAGCGGA | 2.01
AAAUAAA | -0.479
GAGUUGU | 0.0568
ACACUGU | -0.519
GUUGCGG | 1.04
GCUGUUA | -0.766
CCGCGCG | -0.304
UAACCCA | -0.337
UAGCGGC | 0.239
UUAACCA | -0.424
CAUCGAA | -0.588
ACAUUUG | -0.668
GGAAUCA | 1.04
UCCUCAU | -0.785
UCAUGGG | 1.19
CUGUAAG | -0.377
GGACCUU | -0.541
CAGAUUU | -0.788
ACGUCGA | -0.191
CGAGAUU | -0.318
UGGAUCC | 0.111

Sequence | RNAcompete 7-mer binding Z-score
AUAGUAA | 0.0532
CUAGGCC | -0.69
GCCCGCC | -0.599
CAGUUCC | -0.723
AUUGCGU | -0.296
GGGCAAG | 2.34
AAUCGAG | 0.184
CCCUAGU | -0.726
GCGGCGA | 1.41
CACAGAU | -0.311
UGGUUGG | 2.15
ACGGGUU | 2.32
GAGAAGG | 4.54
UGCUUCG | -0.624
CACACCG | -0.384
UUGACAC | -0.409
AGUGCUC | -0.508
UGGUUAA | 1.53
UCGACUU | -0.803
CUUAACU | -0.832
UUAUGCA | -0.413
AGAGAAU | 0.345
CAGACAU | -0.377
GAUAGUA | 0.261
CGAAUGC | -0.511

Sequence | RNAcompete 7-mer binding Z-score
CUCUCAU | -0.785
GCACUUU | -0.821
AUUACCU | -0.741
CUCCCGG | -0.267
CAGGAAC | 0.905
UUUCCCU | -0.894
GAACCGU | -0.588
GUUCUUU | -0.679
CUUUCUU | -0.854
UGUAAAG | 0.257
AAUAAAG | -0.067
AGACCCG | -1.15
UUUGUCG | -0.577
AACUUCU | -0.759
GUAUUCG | -0.347
AACACCU | -0.785
ACUGCUG | -0.701
AGGAUAU | 1.04
GAUUACU | -0.551
AGGGUGC | 2.43
GCUGCUU | -0.439
GGUUAUU | 0.891
CAUCUCC | -0.795
GAGUAUA | 0.556
CUUAAAC | -0.646

Sequence | RNAcompete 7-mer binding Z-score
GCUCCCU | -0.61
UUUAACU | -0.734
AUCGUGA | -0.253
CGGCCAG | 0.141
GGACCGG | 1.52
UUUAUAA | -0.686
AGCGUUU | -0.384
UUGCAUG | -0.3
GGAGGAA | 3.08
AUCAGGU | 1.17
ACUCGGG | 0.618
UCCAUGU | -0.544
GUCAGUG | 0.607
AUUUUCU | -0.803
UGUAAUG | -0.191
GCUCGUC | -0.409
UUCCUUG | -0.719
UGACAGC | -0.227
AAGAGAG | 1.28
CGUGUGU | -0.151
CGACCCG | -0.646
CCGCUUC | -0.916
GUUGGAG | 2.19
CACACUU | -0.938
GGCUUGC | -0.391

Sequence | RNAcompete 7-mer binding Z-score
CACGUCA | -0.435
GGAGCUU | 0.374
UACAAUA | -0.202
ACUGGCG | -0.22
UACACGA | -0.0998
AAUGGCG | 2.02
GCUAGUA | -0.256
GUAUAAU | 0.101
CCAGGUG | 1.04
AACGGCU | -0.0343
CAUAUAG | -0.184
AGUAUAA | -0.00512
CGAGGGG | 3.29
AAGUGGG | 3.5
AAGGUUC | 1.02
CUGUGCG | -0.242
GUAAAUA | 0.141
AUCACUG | -0.475
CGCCCCA | -0.77
ACUGAAG | 0.337
UGUUUGG | 0.279
CGACUUG | -0.668
GAGGGAG | 3.04
CCGGAGC | -0.0561
ACAAUCA | -0.311

Sequence | RNAcompete 7-mer binding Z-score
AGUUAGG | 2.48
UGACAGG | 2.26
AAUUAUC | -0.653
CUAGGUA | 0.41
UGCAGUU | -0.256
AUACCGA | -0.398
AAGACCG | -0.344
ACCCGCA | -0.81
UGUCAGA | -0.402
CUGCCAG | -0.606
AUGCCGA | -0.686
CGGUCGG | 0.68
GCAACGG | 1.44
AACGGGA | 3.38
CUAAAAA | -0.526
AAACGCU | -0.584
UAUUGAG | 0.0349
CCGCAUC | -0.897
GAUUAGG | 2.76
CGACUGC | -0.657
CGUGUGC | -0.111
AAUCAAU | -0.0561
UGGUGAU | 0.727
AAUACCG | -0.395
CUGAAUU | -0.617

Sequence | RNAcompete 7-mer binding Z-score
CCAUGGA | 0.359
CCUGACG | -0.592
CCUUCCA | -0.661
UGCCUCA | -0.817
UGCGCAU | -0.176
AUUUGGG | 1.77
GGGUUUU | 1.9
GUUCCGC | -0.639
AGGAGCA | 1.59
GGAGCUC | 0.126
GAGAUGC | 0.421
AUCGGAA | 0.519
AGAUAUA | 0.0204
AUACGCU | -0.497
CUUGAUU | -0.774
CACAACA | -0.318
GAAACUG | -0.0998
GGCUUAA | -0.329
AUCAUGG | 0.865
UCCCCCA | -0.38
CAAGUGA | 0.228
CCGUCCA | -0.704
GCGUCGG | 0.884
UUAGGUC | -0.118
CGCUGGA | -0.027

Sequence | RNAcompete 7-mer binding Z-score
CUCCUGA | -0.806
GGACUUC | -0.271
UGGGUCC | 1.2
AUGUCUU | -0.806
AUCCUGG | -0.679
GUCGGAC | 0.228
GAUCUGU | -0.551
UCUACAG | -0.759
GAGGCAG | 1.68
CGUUUCU | -0.77
CAGUGGU | 1.11
GGCGGUC | 0.869
GAGGAUA | 2
UCAAAUG | -0.384
GACCAUC | -0.846
AAUUUAU | -0.551
AUUUGGC | -0.344
GCUCUAC | -0.868
CGAAGUG | 1.1
AUGGCAU | 0.803
GGUCAAG | 1.05
AGGCGCC | -0.435
UGUGAUG | 0.315
AGAACAA | 0.0422
UGAGGAA | 1.67

Sequence | RNAcompete 7-mer binding Z-score
AGAGGGU | 2.21
CUGUAUU | -0.737
AAACGAC | -0.409
CCAGGCU | -0.533
GAUGCUG | -0.169
CAAAUGC | -0.643
GUGUGUC | -0.122
CGACAAA | -0.439
CCAAUAU | -0.664
CGGUAGG | 2.15
UGUCUCG | -0.639
CAGAGAC | 0.0677
AUUGUCG | -0.402
GGUCAUA | 0.235
GAUUAUC | -0.464
UUUAACG | -0.646
UUACCUA | -0.723
AGCCAUA | -0.533
GGAUCAA | 1.19
UCCAAGG | 0.141
AUCAUUU | -0.843
UGUCAUC | -0.672
CUCGCGG | -0.0816
UGUUGCU | -0.741
CGUCUUC | -0.668

Sequence | RNAcompete 7-mer binding Z-score
AGAAUCG | -0.0197
UAUUAAG | -0.446
GCCUACU | -0.945
GCUGGGU | 1.78
UAGGGUA | 4.16
GGAGGUG | 3.64
ACAAACG | 0.221
AUGUAGA | 0.243
CCGUCAU | -0.741
GCAAUUU | -0.643
GUGUAAG | 1.28
GCUGUAG | -0.151
CACCCGG | -0.595
UCCGGAG | -0.0343
AUUAUGA | -0.136
CUGGCGC | -0.202
UGUUCAA | -0.795
CAGAACC | -0.555
UGUUGUU | -0.286
CGUUGCU | -0.65
GCCUUCG | -0.905
GCGUUGC | -0.293
CUCUAGC | -0.956
UGAUACC | -0.377
CACCAGA | -0.5

Sequence | RNAcompete 7-mer binding Z-score
CGUCGCG | -0.0816
GGCCCCA | -0.508
CGGAUGU | 0.778
UAUCUUA | -0.741
CUACCAA | -0.548
CGACUAA | -0.686
GUGUGGU | 1.87
GUAGAUA | 0.548
AGAUGAG | 1.48
UCCACUA | -0.668
UAGCCAC | -0.624
AGCACGA | -0.0124
GGCUCCA | -0.515
GUCUACU | -0.635
ACAGGGG | 3.19
CAGCUCA | -0.795
GGCACGC | 0.0604
AACAAGC | -0.176
GGUAGUC | 0.989
GUGUUAU | -0.198
CACCAAC | -0.57
GGCCAAG | 0.199
ACAGAAC | -0.435
UAAUACA | -0.391
AUCUGAU | -0.766

Sequence | RNAcompete 7-mer binding Z-score
AUGAUGG | 2.5
UUGUGGC | 0.0532
GACGGCG | 0.836
CCGCUUG | -0.832
GGGUCAU | 1.37
GGUGGGG | 4.34
CACACUC | -0.792
GAGCUGC | -0.216
GGAUCCG | 0.589
CUUGAAA | -0.719
GGAACAU | 0.527
AAUGUUA | -0.216
CCGUCUG | -0.806
CCCUAAG | -0.515
UGUACUA | -0.573
CGGUGAU | 0.723
AAAGAGG | 1.49
CAAACGC | -0.402
AACGACG | -0.0743
GAUAUAG | 0.734
CCUCCAU | -0.916
GGGGAUU | 2.36
CUGCGUC | -0.657
ACUCUAU | -0.85
CGUAUGC | -0.49

Sequence | RNAcompete 7-mer binding Z-score
CUCGGCA | -0.65
UUGGGAA | 1.92
UCCAUAU | -0.599
CAUUAUC | -0.737
AUAGUGA | 0.669
CACGCCC | -0.715
AUCCAGU | -0.398
CCCGUGU | -0.406
UGGCUGC | -0.027
CCAAACG | -0.293
UAGUACA | 0.0459
GUCGUUU | -0.067
GCAGAAA | 0.45
GACUGGC | -0.253
UUCAUAG | -0.333
GAGUUUU | -0.103
AACCGGU | 0.177
